Assay results: PubChem BioAssay AID686979 (National Center for Advancing Translational Sciences (NCATS), 2013)
Hit rate of the full screen: of about 420,000 compounds, about 50,000 (12%) were called active. Inconclusive results, whose numbers are uncertain, are shown with a selection of clear calls. Calls follow the shape of the dose curve; as a rule, active = well fitted inhibition curve with a large enough effect; inconclusive = small, poorly fitted or top-dose-only effect; inactive = flat fitted curve, though single readings scatter. Potencies of inconclusive entries are left out as doubtful fits.

Test: qHTS for Inhibitors of human tyrosyl-DNA phosphodiesterase 1 (TDP1): qHTS in cells in presence of CPT; also: nearly all actives have a fitted effect of over 55% in size
Conditions: chicken DT40 Tdp1-/-;hTDP1 cells + 20 nM CPT, ATP luminescence, 48 h; activity change, negative = growth inhibition: at 46.2 µM (top of the series) unless noted
Outline: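 Cell growth measured by CellTiter-Glo luminescence after a minimum 48 h, 37 C compound exposure with 20 nM CPT in Tdp1-knockout DT40 cells stably expressing hTDP1, seeded 400/well; qHTS titration format.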
% is scaled to controls: 0 for no effect and ±100 for the full control effect; potency is read from the fitted curve at half-maximal effect; tags tell the direction and shape of the fitted curve.

SMILES | Potency | activity change, negative = growth inhibition
CN(c1ccc(OCC(=O)OCC(=O)c2c(N)n(C)c(=O)n(C)c2=O)cc1)S(=O)(=O)c1ccc2ccccc2c1 | inconclusive [inhibitor, single point] | 
Cc1c(Cl)cccc1NC(=O)C(=O)NNS(=O)(=O)c1ccc(F)cc1 |  | inactive: -22.3%
CCOC(=O)N1CCN(C(=O)CCN2C(=O)/C(=C\c3ccccc3OC)SC2=S)CC1 | active: 23.1 µM | 
O=C(Nc1ccccc1)C(Cc1cccs1)c1nn[nH]n1 (stereo not drawn) |  | inactive: -5.21%
Cc1cccc(CCN2C(Nc3ccccc3)=NC[C@@H]2CC(C)C)c1 | active: 18.4 µM | 
Cc1csc(NC(=O)c2sc3nc(-c4cccs4)ccc3c2N)n1 | inconclusive [inhibitor, single point] | 
Cc1onc(-c2ccccc2)c1C(=O)NN1CCOCC1 |  | inactive: -6.74%
Cc1ccc(C(=O)Nc2cccc(S(=O)(=O)N(C)c3ccccc3)c2)o1 | inconclusive [inhibitor, single point] | 
O=C(c1ccc(COc2ccccc2[N+](=O)[O-])o1)N1CCCCCC1 | inconclusive [inhibitor, single point] | 
CCN(C(=O)C1=COCCO1)c1nc2c(C)cccc2s1 |  | inactive: -0.901%
Cc1cc(=O)oc2c3c(cc(OCC(=O)NCCN4CCOCC4)c12)OC(C)(C)CC3 | inconclusive [inhibitor, partial curve, poor fit] | 
CCCCN(C)c1c(C)nc2ccc(C(=O)NCCOc3ccc(OC)cc3)cn12 | active: 13 µM | 
CCOC(=O)c1sc(=S)n(C)c1NC(=O)c1ccc(OC)cc1 | active: 2.31 µM | 
Cc1nc2nc3c(c(=O)n2[nH]1)CCCC3 |  | inactive: 7.52%
CS(=O)(=O)CCSc1ncccc1C(=O)NCc1cccs1 |  | inactive: -2.56%
O=C(O)CCN1C(=O)c2ccc(NC(=O)c3cccs3)cc2C1=O |  | inactive: -14.7%
Cc1cccc(C)c1NC(=O)CN(C)c1ccc(C(F)(F)F)cn1 |  | inactive: -3.67%
COc1cccc2c1C(=O)C=C(C)C2=O | active: 2.91 µM | 
CCn1cc(C(=O)NCc2ccc(Cl)cc2)c(=O)c2cc(S(=O)(=O)N(C)C3CCCCC3)ccc21 | inconclusive [inhibitor, single point] | 
Cc1ccccc1OCCCN1C(=O)C(=O)c2cccc(C)c21 | active: 2.59 µM | 
CCC(=O)Nc1ccc(S(=O)(=O)N2CCC(c3nc4ccccc4[nH]3)CC2)cc1 | inconclusive [inhibitor, single point] | 
c1ccc(C[C@H]2CNCCN2CCC23CC4CC(CC(C4)C2)C3)cc1 | active: 10.3 µM | 
CCOC(=O)C1=C(CN2CCN(c3cccc(Cl)c3)CC2)NC(=O)NC1c1ccc(Cl)cc1 (stereo not drawn) | inconclusive [inhibitor, single point] | 
COc1ccc(C2=NN(C(N)=S)C(c3ccccc3)C2)cc1 (stereo not drawn) | inconclusive [inhibitor, single point] | 
Cc1ccc(S(=O)(=O)N2CCOCC2)cc1C(=O)NCCN1C(=O)S/C(=C\c2ccccc2Cl)C1=O | inconclusive [inhibitor, single point] | 

SMILES | Potency | activity change, negative = growth inhibition
Cc1ccc(S(=O)(=O)N2CCN(C(=O)CSc3nc(N)cc(=O)[nH]3)CC2)c(C)c1 |  | inactive: 14%
COc1ccc(S(=O)(=O)NCCSc2nnnn2-c2ccccc2)cc1 |  | inactive: -21.7%
Cc1cc([N+](=O)[O-])nn1CC(=O)NC1CCCCC1 |  | inactive: 0.85%
COc1ccc(CCNCC(O)COc2cccc(Br)c2)cc1OC (stereo not drawn) | inconclusive [inhibitor, single point] | 
Cc1cc(C)nc(NN2C(=O)C=CC2=O)n1 | inconclusive [inhibitor, single point] | 
NNc1nc(C(F)(F)F)nc2ccccc12 |  | inactive: 3.15%
Cc1cccc(-c2cc(C(=O)N3CCCc4ccccc43)c3ccccc3n2)c1 | active: 23.1 µM | 
Cc1ccc(C(=O)Nc2cccc(-c3nc(CNC(=O)c4ccc5ccccc5n4)c(C)o3)c2)s1 | inconclusive [inhibitor, single point] | 
COc1ccc(NC(=O)CCCn2nc(C)c3sc4ccccc4c3c2=O)cc1 | inconclusive [inhibitor, single point] | 
COc1ccc(C(C)NC(=O)CC23CC4CC(CC(C4)C2)C3)cc1 (stereo not drawn) | inconclusive [inhibitor, partial curve] | 
CC(CNC(=O)c1ccc2nc(Cc3ccccc3)oc2c1)c1ccccc1 (stereo not drawn) | inconclusive [inhibitor, single point] | 
CCn1cc(CNC(=O)/C=C/c2ccc([N+](=O)[O-])cc2)c(C)n1 |  | inconclusive: -32.2% [inhibitor]
COc1ccc(CN(C)C[C@H]2OCCCC[C@@H](C)Oc3ccc(NS(C)(=O)=O)cc3C(=O)N([C@H](C)CO)C[C@@H]2C)cc1 |  | inactive: -2.4%
COc1cc(=O)n2c(c1C(=O)N(C)Cc1nccs1)CCN(Cc1ccc(F)c(F)c1)CC2 | inconclusive [inhibitor, single point] | 
COC(=O)C1CCCN1C(C(=O)NC1CCCCC1)c1ccc(Cl)cc1 (stereo not drawn) | inconclusive [inhibitor, partial curve, poor fit] | 
Cc1cc(-n2c(C)nc3ccccc3c2=O)ccc1NC(=O)C(F)(F)F | inconclusive [inhibitor, partial curve, poor fit] | 
Fc1ccc(C2=CC(c3ccc(F)cc3)n3c(nc4ccccc43)N2)cc1 (stereo not drawn) | active: 14.6 µM | 
CCN(Cc1ccccc1)S(=O)(=O)c1ccc(-c2coc(C)n2)cc1 | active: 13 µM | 
COc1ccc(C(=O)N/N=C/c2cn[nH]c2-c2ccc(OC)cc2OC)cc1 | inconclusive [inhibitor, single point] | 
COc1ccc(CN2CCN(c3ccc(F)cc3)CC2)c(OC)c1OC | inconclusive [inhibitor, single point] | 
CCOc1ccc(N(CC(=O)OC)S(=O)(=O)c2ccc(OC)c(OC)c2)cc1 | inconclusive [inhibitor, single point] | 
COc1ccc(C(O)c2nc(-c3ccc(F)cc3OC)cs2)cc1 (stereo not drawn) | active: 25.9 µM | 
Cn1cc(S(=O)(=O)N2CCNCC2)cc1C(N)=O |  | inactive: 1.58%
COc1ccc(CN(CC2CCCO2)C(=O)c2cc3sccc3n2C)c(OC)c1 (stereo not drawn) |  | inactive: -8.53%
COc1cccc(/C=N/NC(=O)c2ccc(N3CCCC3=O)cc2)c1 | inconclusive [inhibitor, single point] | 

SMILES | Potency | activity change, negative = growth inhibition
C(=C\c1ccc2ccccc2n1)/c1ccccc1 | inconclusive [inhibitor, single point] | 
C=CCN1C(=O)N/C(=C/c2ccc(C)o2)C1=O | inconclusive [inhibitor, single point] | 
CCC(C)Nc1ncnc2c1cnn2-c1ccc(F)cc1 (stereo not drawn) | inconclusive [inhibitor, single point] | 
O=C(CCCc1ccccc1)NCCS(=O)(=O)N1CCN(c2ccccc2F)CC1 | inconclusive [inhibitor, single point] | 
O=C(OCc1c(Cl)nc2sccn12)c1cc2c(s1)CCCC2 | active: 14.1 µM | 
NC(N)=NCCCS(=O)(=O)Nc1ccc(Nc2c3ccccc3nc3cc([N+](=O)[O-])ccc23)cc1 | active: 9.2 µM | 
COc1ccc(-c2nc(CN3CCN(c4ncccn4)CC3)c(C)o2)cc1C | inconclusive [inhibitor, single point] | 
O=C(NCC(c1ccco1)N1CCCC1)c1ccc(-n2cccn2)cc1 (stereo not drawn) | inconclusive [inhibitor, single point] | 
Cc1cccc(Cc2c(C)nc3c(-c4ccccc4)c(C)[nH]n3c2=O)c1 | active: 5.8 µM | 
CCOc1ccc(-c2nn(-c3ccccc3)cc2/C=C2\SC(N)=NC2=O)cc1C | inconclusive [inhibitor, single point] | 
Cc1cc(C(=O)Nc2ccc(-n3c(C)nc4ccccc4c3=O)cc2)ccc1[N+](=O)[O-] | inconclusive [inhibitor, partial curve, poor fit] | 
COc1ccc(NS(=O)(=O)c2ccc3nc(-c4ccccc4)[nH]c3c2)cc1 | inconclusive [inhibitor, single point] | 
N#CCC(=O)Nc1sc2c(c1C(N)=O)CCCC2 |  | inactive: -19.3%
COc1ccc(NC(=O)c2csc(C)c2)cc1OC |  | inactive: 0.65%
O=C(NNC(=S)NC1CCCCC1)c1ccccc1Br | inconclusive [inhibitor, partial curve] | 
O=c1cc(CN2CCN(S(=O)(=O)/C=C/c3ccccc3)CC2)c2ccc(O)cc2o1 | inconclusive [inhibitor, single point] | 
Cc1ccc(CNC(=O)CSc2ncc(C(=O)Nc3ccccc3)c(=O)n2C)cc1 | active: 11.6 µM | 
O=C(Nc1ccc2c(c1)OCCO2)c1cc(F)c(F)cc1Cl |  | inactive: 0.94%
CCCS(=O)(=O)C(=C1NCCO1)S(=O)(=O)CCC |  | inactive: -3.72%
CCN(CC)c1ccc(/C=C/C2=C3C=CC=CC3NC=C2)cc1 (stereo not drawn) | inconclusive [inhibitor, single point] | 
COc1cc(OC)c(OC)cc1CN1CCCC(C(=O)c2ccccc2SC)C1 (stereo not drawn) | inconclusive [inhibitor, partial curve, poor fit] | 
CCC(C)Nc1nc(N)c([N+](=O)[O-])c(N2CCCCCC2)n1 (stereo not drawn) | inconclusive [inhibitor, single point] | 
CCCn1c(N2CCN(S(=O)(=O)Cc3ccccc3)CC2)nc2ccccc21 | inconclusive [inhibitor, single point] | 
